Laboratory results published in PMC3687523 (Biochemical pharmacology, 2013).

Test system: Male adult Wistar rats
Conditions: 30 min after 40 μg i.c.v. propafenone, no opioid; n=8; baseline TFL 2.96+0.12 sec, no significant difference

CCCNCC(O)COc1ccccc1C(=O)CCc1ccccc1 (stereo not shown) [propafenone]
tail-flick latency (TFL) after inhibitor alone (mean+SEM): 2.75+0.23 sec
